Experimental data as given in publication PMC10160066.
Where two headings read alike, the source gives them in different places. No constants are given. Whether binding was seen depends on the method and setting. Binding seen in cells or lysates may run through a third protein. Some binding calls cover weakened binding; strength is not graded here. For some assays here: Where a sequence is shown, tags or fusion partners need not be part of it.

By UniProt entry, the sequences of proteins in these tests, tags left out.
UniProt P93213: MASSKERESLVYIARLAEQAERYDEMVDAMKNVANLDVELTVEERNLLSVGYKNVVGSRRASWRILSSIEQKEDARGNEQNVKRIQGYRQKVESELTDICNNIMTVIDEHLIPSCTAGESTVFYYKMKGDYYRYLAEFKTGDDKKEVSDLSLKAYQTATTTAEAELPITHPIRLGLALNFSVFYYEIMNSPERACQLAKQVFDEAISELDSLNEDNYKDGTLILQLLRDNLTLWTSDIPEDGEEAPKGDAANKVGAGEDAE
UniProt P93211: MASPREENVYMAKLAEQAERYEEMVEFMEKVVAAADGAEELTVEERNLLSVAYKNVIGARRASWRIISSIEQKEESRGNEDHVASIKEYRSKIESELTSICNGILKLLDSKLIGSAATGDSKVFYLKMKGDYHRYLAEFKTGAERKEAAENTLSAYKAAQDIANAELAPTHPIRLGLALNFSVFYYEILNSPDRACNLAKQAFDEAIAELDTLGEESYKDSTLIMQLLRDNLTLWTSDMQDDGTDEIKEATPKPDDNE
UniProt P93208: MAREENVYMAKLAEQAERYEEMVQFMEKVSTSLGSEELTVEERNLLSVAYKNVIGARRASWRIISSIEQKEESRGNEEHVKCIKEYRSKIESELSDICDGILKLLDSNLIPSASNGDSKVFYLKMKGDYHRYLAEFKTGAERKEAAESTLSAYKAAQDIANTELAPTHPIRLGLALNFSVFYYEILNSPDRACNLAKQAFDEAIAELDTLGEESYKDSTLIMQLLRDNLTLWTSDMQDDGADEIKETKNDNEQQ
UniProt P42652: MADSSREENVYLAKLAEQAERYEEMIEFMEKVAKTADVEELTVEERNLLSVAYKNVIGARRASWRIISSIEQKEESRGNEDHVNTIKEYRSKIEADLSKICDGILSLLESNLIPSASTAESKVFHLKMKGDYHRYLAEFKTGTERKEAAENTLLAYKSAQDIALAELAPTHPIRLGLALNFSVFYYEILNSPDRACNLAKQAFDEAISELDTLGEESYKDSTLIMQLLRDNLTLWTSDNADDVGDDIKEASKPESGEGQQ
UniProt P93212: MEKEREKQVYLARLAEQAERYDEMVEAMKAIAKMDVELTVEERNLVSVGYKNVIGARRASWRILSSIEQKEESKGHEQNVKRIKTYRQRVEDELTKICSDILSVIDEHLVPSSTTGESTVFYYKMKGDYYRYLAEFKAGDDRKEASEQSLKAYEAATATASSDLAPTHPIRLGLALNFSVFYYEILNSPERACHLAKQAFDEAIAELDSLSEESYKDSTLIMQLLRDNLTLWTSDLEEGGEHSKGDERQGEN
UniProt P93207: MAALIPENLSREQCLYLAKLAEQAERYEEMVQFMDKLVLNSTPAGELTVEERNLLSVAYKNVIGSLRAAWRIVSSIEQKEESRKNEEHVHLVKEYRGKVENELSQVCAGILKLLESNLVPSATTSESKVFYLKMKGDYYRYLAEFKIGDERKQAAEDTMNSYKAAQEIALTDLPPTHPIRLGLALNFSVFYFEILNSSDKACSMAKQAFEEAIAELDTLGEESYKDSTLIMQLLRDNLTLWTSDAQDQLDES
UniProt P93214: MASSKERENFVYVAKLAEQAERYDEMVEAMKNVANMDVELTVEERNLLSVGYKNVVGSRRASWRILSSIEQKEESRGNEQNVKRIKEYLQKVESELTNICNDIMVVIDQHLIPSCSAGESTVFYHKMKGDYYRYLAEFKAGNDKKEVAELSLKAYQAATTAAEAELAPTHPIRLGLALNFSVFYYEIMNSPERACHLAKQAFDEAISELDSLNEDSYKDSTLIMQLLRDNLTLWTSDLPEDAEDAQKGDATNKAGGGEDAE

Experiments:
TFT8-GFP (tomato) = TFT8-GFP (tomato) (UniProt P93213); assay: co-IP; constructs co-expressed in N. benthamiana leaves; extract incubated with GFP-Trap, Myc-Trap, anti-FLAG M2 or anti-HA agarose beads for 2 h at 4 °C, five washes, immunoblot; the Prf-Pto pair was tested with and without AvrPto co-expressed
TFT6-GFP (tomato) = TFT6-GFP (tomato) (UniProt P93211); assay: as above
TFT2-GFP (tomato) = TFT2-GFP (tomato) (UniProt P93208); assay: as above
TFT4-GFP (tomato) = TFT4-GFP (tomato) (UniProt P42652); assay: as above
TFT7-GFP (tomato) [1] = target: TFT7-GFP (tomato) (UniProt P93212); assay: as above
TFT10-GFP (tomato) = TFT10-GFP (tomato) (UniProt P93207); assay: as above
TFT5-GFP (tomato) = target: T1, TFT5-GFP (tomato) (UniProt P93210); assay: as above
T1 sequence: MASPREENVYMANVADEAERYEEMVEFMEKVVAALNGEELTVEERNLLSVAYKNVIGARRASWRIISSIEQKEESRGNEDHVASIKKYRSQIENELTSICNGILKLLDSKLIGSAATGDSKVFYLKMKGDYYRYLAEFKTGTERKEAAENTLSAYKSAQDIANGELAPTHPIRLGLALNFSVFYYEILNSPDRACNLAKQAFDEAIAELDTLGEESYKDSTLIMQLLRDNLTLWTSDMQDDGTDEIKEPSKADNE

TFT9-GFP (tomato) = TFT9-GFP (tomato) (UniProt P93214); assay: as above
TFT7-GFP (tomato) [2] = target: TFT7-GFP (tomato) (UniProt P93212); assay: as above; remark: listed apart in the source
TFT1-GFP (tomato) = target: T2, TFT1-GFP (tomato) (UniProt P93206); assay: as above
T2 sequence: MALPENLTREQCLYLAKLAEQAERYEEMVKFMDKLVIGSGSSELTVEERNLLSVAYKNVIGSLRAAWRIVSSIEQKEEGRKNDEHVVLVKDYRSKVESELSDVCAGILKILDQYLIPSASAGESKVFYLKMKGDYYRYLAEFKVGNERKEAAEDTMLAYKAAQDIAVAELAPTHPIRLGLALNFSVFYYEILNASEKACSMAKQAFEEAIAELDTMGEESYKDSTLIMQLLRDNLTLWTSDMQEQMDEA

TFT3-GFP (tomato) = target: T3, TFT3-GFP (tomato) (UniProt P93209); assay: as above
T3 sequence: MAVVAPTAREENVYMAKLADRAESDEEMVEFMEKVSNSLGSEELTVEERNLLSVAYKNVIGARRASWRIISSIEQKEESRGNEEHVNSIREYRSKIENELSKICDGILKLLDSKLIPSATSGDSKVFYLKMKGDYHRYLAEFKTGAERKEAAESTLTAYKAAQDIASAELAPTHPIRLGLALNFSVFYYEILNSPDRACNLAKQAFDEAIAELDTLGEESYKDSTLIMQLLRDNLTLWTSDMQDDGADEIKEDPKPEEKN

TFT1-Myc (tomato) = target: T4, TFT1-Myc (tomato) (UniProt P93206); assay: as above
T4 sequence: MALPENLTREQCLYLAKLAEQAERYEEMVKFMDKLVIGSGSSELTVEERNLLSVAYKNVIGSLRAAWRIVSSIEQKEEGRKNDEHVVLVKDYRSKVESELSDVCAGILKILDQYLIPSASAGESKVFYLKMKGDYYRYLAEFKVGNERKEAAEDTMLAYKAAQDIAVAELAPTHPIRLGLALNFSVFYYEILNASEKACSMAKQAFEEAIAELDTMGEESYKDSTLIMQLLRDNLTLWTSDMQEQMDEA

[3] = target: T5, TFT1, split-luciferase fusion (tomato) (UniProt P93206); assay: split reporter; split-luciferase; NLUC and CLUC fusions co-infiltrated into N. benthamiana leaves; luminescence imaged 3 days post-infiltration
T5 sequence: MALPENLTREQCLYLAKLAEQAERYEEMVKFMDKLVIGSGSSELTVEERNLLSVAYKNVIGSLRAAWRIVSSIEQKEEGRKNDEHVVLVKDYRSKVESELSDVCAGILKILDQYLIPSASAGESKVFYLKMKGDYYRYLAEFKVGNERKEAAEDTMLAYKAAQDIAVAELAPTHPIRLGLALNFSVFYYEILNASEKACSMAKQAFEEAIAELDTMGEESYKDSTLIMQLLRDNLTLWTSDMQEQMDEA

[4] = target: T6, TFT3, split-luciferase fusion (tomato) (UniProt P93209); assay: as above
T6 sequence: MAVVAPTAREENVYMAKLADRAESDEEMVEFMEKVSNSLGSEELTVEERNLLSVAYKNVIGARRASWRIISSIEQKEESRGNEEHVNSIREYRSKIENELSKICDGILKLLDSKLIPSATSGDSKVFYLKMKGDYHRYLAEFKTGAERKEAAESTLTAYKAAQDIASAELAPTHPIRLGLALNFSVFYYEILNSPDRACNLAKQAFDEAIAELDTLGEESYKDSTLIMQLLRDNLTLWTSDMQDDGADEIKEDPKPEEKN

## TFT3-FLAG (from UniProt P93209 1-260)
TFT8-GFP (tomato)
  binding: no binding
TFT6-GFP (tomato)
  binding: no binding
TFT2-GFP (tomato)
  binding: no binding
TFT4-GFP (tomato)
  binding: no binding
TFT7-GFP (tomato) [1]
  binding: no binding
TFT10-GFP (tomato)
  binding: no binding
TFT5-GFP (tomato)
  binding: no binding
TFT9-GFP (tomato)
  binding: no binding

B1: Pto-FLAG (enzyme, UniProt Q40234 1-321)
chain: MGSKYSKATNSINDALSSSYLVPFESYRVPLVDLEEATNNFDHKFLIGHGVFGKVYKGVLRDGAKVALKRRTPESSQGIEEFETEIETLSFCRHPHLVSLIGFCDERNEMILIYKYMENGNLKRHLYGSDLPTMSMSWEQRLEICIGAARGLHYLHTRAIIHRDVKSINILLDENFVPKITDFGISKKGTELDQTHLSTVVKGTLGYIDPEYFIKGRLTEKSDVYSFGVVLFEVLCARSAIVQSLPREMVNLAEWAVESHNNGQLEQIVDPNLADKIRPESLRKFGDTAVKCLALSSEDRPSMGDVLWKLEYALRLQESVI
TFT7-GFP (tomato) [2]
  binding: no binding
TFT1-GFP (tomato)
  binding: binds
TFT3-GFP (tomato)
  binding: binds
TFT1-Myc (tomato)
  binding: binds

B2: TFT3-GFP (protein, UniProt P93209 1-260)
chain: MAVVAPTAREENVYMAKLADRAESDEEMVEFMEKVSNSLGSEELTVEERNLLSVAYKNVIGARRASWRIISSIEQKEESRGNEEHVNSIREYRSKIENELSKICDGILKLLDSKLIPSATSGDSKVFYLKMKGDYHRYLAEFKTGAERKEAAESTLTAYKAAQDIASAELAPTHPIRLGLALNFSVFYYEILNSPDRACNLAKQAFDEAIAELDTLGEESYKDSTLIMQLLRDNLTLWTSDMQDDGADEIKEDPKPEEKN
TFT3-GFP (tomato)
  binding: binds

B3: TFT3-FLAG (protein, UniProt P93209 1-260)
chain: MAVVAPTAREENVYMAKLADRAESDEEMVEFMEKVSNSLGSEELTVEERNLLSVAYKNVIGARRASWRIISSIEQKEESRGNEEHVNSIREYRSKIENELSKICDGILKLLDSKLIPSATSGDSKVFYLKMKGDYHRYLAEFKTGAERKEAAESTLTAYKAAQDIASAELAPTHPIRLGLALNFSVFYYEILNSPDRACNLAKQAFDEAIAELDTLGEESYKDSTLIMQLLRDNLTLWTSDMQDDGADEIKEDPKPEEKN
TFT1-GFP (tomato)
  binding: binds

B4: Pto, split-luciferase fusion (enzyme, UniProt Q40234 1-321)
chain: MGSKYSKATNSINDALSSSYLVPFESYRVPLVDLEEATNNFDHKFLIGHGVFGKVYKGVLRDGAKVALKRRTPESSQGIEEFETEIETLSFCRHPHLVSLIGFCDERNEMILIYKYMENGNLKRHLYGSDLPTMSMSWEQRLEICIGAARGLHYLHTRAIIHRDVKSINILLDENFVPKITDFGISKKGTELDQTHLSTVVKGTLGYIDPEYFIKGRLTEKSDVYSFGVVLFEVLCARSAIVQSLPREMVNLAEWAVESHNNGQLEQIVDPNLADKIRPESLRKFGDTAVKCLALSSEDRPSMGDVLWKLEYALRLQESVI
[3]
  binding: binds
[4]
  binding: binds

B5: Pto^D164N-FLAG (enzyme, UniProt Q40234 1-321)
chain: MGSKYSKATNSINDALSSSYLVPFESYRVPLVDLEEATNNFDHKFLIGHGVFGKVYKGVLRDGAKVALKRRTPESSQGIEEFETEIETLSFCRHPHLVSLIGFCDERNEMILIYKYMENGNLKRHLYGSDLPTMSMSWEQRLEICIGAARGLHYLHTRAIIHRNVKSINILLDENFVPKITDFGISKKGTELDQTHLSTVVKGTLGYIDPEYFIKGRLTEKSDVYSFGVVLFEVLCARSAIVQSLPREMVNLAEWAVESHNNGQLEQIVDPNLADKIRPESLRKFGDTAVKCLALSSEDRPSMGDVLWKLEYALRLQESVI
TFT3-GFP (tomato)
  binding: binds
TFT1-Myc (tomato)
  binding: binds

B6: Pto^L205D (enzyme, UniProt Q40234 1-321)
chain: MGSKYSKATNSINDALSSSYLVPFESYRVPLVDLEEATNNFDHKFLIGHGVFGKVYKGVLRDGAKVALKRRTPESSQGIEEFETEIETLSFCRHPHLVSLIGFCDERNEMILIYKYMENGNLKRHLYGSDLPTMSMSWEQRLEICIGAARGLHYLHTRAIIHRDVKSINILLDENFVPKITDFGISKKGTELDQTHLSTVVKGTDGYIDPEYFIKGRLTEKSDVYSFGVVLFEVLCARSAIVQSLPREMVNLAEWAVESHNNGQLEQIVDPNLADKIRPESLRKFGDTAVKCLALSSEDRPSMGDVLWKLEYALRLQESVI
TFT3-GFP (tomato)
  binding: binds

B7: Pto^S198T199/AA (enzyme, UniProt Q40234 1-321)
chain: MGSKYSKATNSINDALSSSYLVPFESYRVPLVDLEEATNNFDHKFLIGHGVFGKVYKGVLRDGAKVALKRRTPESSQGIEEFETEIETLSFCRHPHLVSLIGFCDERNEMILIYKYMENGNLKRHLYGSDLPTMSMSWEQRLEICIGAARGLHYLHTRAIIHRDVKSINILLDENFVPKITDFGISKKGTELDQTHLAAVVKGTLGYIDPEYFIKGRLTEKSDVYSFGVVLFEVLCARSAIVQSLPREMVNLAEWAVESHNNGQLEQIVDPNLADKIRPESLRKFGDTAVKCLALSSEDRPSMGDVLWKLEYALRLQESVI
TFT3-GFP (tomato)
  binding: binds
